In test [1] the target is programmed death-ligand 1 (PD-L1), GFP-tagged library member (human) (UniProt Q9NZQ7). Nature of the test: flow cytometry on cells; cell-cell conjugates: cells expressing the mCherry-tagged query mixed with cells individually expressing GFP-tagged members of the human Ig and TNFR superfamily library; double-positive events; PBS 0.2% BSA, pH 7.4. A general note: Flow cytometry measures light scatter and fluorescence of single cells or particles in a stream.

Amino acid sequences for entries named in this document (tags omitted). A change or cut given only in a name is not applied to a line headed by its entry. Chains listed by the source or under a name are the forms on record and can include a tag or linker. Residues count along the entry.
UniProt Q9NZQ7, residues 19-290: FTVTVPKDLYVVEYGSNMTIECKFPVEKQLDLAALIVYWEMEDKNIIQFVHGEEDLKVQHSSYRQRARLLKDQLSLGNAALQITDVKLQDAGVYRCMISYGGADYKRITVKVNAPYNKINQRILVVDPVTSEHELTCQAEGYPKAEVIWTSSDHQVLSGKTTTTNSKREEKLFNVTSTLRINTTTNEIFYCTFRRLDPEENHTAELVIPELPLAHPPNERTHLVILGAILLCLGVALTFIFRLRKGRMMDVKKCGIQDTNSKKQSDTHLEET
UniProt P42081, residues 24-329: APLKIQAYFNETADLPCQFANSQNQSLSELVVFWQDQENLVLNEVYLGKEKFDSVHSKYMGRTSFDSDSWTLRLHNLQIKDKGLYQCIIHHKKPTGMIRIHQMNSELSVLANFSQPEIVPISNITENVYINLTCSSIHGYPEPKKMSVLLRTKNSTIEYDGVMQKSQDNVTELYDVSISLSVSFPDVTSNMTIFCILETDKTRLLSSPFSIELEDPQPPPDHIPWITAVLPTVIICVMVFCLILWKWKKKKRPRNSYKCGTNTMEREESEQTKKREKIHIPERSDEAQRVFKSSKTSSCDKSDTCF
UniProt P10586, residues 30-1907: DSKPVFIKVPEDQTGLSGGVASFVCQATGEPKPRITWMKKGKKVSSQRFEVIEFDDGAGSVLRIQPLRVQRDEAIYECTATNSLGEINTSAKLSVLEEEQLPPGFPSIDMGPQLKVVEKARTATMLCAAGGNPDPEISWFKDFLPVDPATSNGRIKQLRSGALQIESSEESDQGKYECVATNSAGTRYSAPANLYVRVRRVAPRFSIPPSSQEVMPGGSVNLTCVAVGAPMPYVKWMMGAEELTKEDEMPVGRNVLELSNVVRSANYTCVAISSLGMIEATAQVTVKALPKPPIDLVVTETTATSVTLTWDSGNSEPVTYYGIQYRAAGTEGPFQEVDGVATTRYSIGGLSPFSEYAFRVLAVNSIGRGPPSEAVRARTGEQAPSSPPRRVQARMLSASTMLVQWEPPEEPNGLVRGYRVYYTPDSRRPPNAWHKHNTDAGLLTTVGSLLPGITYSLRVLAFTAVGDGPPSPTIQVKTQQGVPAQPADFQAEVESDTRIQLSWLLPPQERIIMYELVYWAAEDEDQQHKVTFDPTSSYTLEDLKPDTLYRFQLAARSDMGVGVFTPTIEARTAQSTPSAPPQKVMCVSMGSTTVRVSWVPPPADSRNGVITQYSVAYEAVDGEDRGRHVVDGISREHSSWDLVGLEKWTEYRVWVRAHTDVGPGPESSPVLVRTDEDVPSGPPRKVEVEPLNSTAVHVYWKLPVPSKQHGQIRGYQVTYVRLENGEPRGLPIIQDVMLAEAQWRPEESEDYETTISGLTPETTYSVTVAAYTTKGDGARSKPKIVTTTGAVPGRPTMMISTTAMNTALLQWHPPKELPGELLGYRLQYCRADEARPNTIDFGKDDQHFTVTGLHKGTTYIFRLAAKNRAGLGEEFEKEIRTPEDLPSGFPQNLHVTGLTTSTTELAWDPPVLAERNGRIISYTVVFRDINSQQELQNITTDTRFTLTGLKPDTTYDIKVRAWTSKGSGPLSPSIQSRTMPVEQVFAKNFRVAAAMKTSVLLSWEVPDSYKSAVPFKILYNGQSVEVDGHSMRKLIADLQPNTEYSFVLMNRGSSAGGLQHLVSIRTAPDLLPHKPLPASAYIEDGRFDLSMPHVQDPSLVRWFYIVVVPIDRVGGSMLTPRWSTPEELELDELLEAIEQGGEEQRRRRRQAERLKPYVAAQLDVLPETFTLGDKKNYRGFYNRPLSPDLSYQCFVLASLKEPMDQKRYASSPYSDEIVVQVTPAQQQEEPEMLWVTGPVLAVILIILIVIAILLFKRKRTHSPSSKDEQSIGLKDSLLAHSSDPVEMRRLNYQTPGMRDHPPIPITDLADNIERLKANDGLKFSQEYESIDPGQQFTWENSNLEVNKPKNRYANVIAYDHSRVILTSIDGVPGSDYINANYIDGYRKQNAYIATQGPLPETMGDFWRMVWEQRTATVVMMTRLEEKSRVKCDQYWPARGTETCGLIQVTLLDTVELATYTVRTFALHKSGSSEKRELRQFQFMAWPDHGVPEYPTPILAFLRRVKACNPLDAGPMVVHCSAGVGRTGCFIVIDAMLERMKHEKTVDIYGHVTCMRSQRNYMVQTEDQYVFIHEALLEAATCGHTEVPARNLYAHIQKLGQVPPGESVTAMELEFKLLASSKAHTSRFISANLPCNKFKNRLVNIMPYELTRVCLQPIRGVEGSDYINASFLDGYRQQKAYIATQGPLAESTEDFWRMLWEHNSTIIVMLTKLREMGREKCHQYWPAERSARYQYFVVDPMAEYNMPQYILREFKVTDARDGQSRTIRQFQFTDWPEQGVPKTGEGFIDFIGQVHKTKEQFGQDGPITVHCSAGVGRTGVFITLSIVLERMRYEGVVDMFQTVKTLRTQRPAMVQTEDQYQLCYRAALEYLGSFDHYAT
UniProt Q92956: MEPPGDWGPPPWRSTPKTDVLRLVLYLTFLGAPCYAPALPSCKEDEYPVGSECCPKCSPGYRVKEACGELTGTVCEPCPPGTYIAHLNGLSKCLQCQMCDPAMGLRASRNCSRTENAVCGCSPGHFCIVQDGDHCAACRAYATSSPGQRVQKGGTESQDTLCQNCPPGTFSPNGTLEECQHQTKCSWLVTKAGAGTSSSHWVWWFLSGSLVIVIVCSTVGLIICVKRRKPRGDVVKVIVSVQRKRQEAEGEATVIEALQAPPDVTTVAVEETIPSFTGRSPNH
UniProt P25445: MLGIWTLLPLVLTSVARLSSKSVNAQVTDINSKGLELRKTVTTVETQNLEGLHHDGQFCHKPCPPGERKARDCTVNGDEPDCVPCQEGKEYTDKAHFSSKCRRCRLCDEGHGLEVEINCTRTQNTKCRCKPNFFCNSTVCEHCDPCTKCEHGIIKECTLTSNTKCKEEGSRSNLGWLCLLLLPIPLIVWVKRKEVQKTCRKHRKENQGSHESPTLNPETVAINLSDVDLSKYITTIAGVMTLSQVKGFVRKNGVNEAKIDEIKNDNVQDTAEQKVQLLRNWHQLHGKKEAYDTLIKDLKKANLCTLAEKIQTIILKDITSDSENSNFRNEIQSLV
full-length human p75 neurotrophin receptor fused at the cytoplasmic C-terminus to GFP (P08138, residues 29-427): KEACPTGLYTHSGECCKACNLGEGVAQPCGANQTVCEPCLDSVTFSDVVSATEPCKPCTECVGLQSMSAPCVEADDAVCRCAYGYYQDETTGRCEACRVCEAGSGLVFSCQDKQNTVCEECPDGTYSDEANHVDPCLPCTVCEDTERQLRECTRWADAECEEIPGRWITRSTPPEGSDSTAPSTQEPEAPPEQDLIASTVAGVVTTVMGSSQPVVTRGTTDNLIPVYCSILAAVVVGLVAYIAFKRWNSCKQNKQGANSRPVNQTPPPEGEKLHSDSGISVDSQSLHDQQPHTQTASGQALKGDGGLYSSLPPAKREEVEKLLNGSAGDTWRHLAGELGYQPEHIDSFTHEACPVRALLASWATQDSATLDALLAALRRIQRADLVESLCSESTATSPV
p75^NTR F136H (P08138, form named): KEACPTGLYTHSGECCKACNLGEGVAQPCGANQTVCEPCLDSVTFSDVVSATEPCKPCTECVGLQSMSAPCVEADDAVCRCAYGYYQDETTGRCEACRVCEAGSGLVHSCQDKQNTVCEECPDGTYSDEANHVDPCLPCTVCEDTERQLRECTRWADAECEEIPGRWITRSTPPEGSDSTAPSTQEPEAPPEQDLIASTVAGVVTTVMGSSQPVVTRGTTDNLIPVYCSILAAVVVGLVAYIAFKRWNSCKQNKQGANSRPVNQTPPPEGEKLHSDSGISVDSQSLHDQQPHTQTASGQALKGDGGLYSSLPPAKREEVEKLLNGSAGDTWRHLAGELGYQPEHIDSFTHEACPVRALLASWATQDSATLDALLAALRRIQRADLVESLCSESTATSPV
p75^NTR F136K (P08138, form named): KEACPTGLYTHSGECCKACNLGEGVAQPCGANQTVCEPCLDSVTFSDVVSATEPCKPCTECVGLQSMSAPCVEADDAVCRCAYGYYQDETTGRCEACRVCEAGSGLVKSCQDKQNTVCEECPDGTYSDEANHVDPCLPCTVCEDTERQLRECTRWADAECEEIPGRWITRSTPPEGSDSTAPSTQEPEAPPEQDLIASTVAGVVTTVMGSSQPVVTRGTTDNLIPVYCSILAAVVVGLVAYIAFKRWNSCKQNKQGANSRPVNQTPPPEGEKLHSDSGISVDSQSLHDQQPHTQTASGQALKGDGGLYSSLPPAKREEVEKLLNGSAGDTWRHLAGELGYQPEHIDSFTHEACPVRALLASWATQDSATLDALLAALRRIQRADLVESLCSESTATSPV
UniProt Q96PQ0, residues 51-1159: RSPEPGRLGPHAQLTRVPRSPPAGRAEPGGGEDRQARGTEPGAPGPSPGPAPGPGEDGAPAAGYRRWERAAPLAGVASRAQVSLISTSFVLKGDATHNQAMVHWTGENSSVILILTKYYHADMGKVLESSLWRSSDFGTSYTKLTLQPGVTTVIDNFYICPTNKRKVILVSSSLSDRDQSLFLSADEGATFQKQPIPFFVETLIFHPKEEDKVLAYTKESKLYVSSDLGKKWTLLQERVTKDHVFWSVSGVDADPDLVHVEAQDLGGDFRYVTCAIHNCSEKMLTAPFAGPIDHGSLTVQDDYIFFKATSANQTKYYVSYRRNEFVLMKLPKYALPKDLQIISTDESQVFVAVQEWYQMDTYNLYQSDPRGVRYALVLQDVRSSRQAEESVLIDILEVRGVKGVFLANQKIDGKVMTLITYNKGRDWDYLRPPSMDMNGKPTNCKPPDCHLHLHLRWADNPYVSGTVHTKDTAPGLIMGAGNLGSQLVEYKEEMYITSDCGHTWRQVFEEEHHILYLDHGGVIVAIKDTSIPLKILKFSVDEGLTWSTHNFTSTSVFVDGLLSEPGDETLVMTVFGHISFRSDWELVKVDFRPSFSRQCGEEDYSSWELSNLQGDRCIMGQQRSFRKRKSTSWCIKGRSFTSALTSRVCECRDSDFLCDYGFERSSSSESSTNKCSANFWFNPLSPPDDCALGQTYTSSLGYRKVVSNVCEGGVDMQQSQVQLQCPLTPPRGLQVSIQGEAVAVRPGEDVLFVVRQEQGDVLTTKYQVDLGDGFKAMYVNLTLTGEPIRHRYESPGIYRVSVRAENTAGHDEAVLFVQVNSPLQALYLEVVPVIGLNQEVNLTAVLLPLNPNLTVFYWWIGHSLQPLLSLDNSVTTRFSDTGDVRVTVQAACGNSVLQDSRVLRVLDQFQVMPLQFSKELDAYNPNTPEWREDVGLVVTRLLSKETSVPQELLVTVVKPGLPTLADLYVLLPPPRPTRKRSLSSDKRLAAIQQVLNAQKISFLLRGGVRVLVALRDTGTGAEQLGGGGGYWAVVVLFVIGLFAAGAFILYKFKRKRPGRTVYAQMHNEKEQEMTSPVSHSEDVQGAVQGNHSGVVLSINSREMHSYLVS
UniProt Q9Z0W1, residues 32-427: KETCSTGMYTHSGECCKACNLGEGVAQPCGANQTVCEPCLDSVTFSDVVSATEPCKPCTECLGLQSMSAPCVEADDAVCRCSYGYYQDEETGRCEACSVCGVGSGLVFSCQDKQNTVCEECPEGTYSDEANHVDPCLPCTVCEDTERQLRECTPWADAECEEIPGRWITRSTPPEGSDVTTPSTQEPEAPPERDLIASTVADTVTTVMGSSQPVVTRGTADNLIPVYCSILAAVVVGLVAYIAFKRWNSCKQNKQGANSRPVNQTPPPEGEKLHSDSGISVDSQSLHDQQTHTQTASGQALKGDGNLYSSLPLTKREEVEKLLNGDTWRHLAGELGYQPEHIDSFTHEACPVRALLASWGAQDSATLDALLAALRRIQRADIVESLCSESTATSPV
UniProt P07174, residues 30-425: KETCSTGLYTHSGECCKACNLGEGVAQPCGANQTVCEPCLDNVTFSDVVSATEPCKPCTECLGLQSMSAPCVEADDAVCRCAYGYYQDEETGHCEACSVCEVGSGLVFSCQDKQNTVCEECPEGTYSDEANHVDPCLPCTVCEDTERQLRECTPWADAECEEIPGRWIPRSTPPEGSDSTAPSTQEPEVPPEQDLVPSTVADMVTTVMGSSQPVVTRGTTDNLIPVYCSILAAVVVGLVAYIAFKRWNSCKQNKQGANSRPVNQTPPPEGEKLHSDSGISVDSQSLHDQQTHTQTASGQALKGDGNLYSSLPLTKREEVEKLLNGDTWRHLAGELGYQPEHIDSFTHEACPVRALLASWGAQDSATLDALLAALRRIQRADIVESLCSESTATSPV

Test [2] has as its target T1, ICOSL, GFP-tagged library member (human) (UniProt O75144).
T1 sequence: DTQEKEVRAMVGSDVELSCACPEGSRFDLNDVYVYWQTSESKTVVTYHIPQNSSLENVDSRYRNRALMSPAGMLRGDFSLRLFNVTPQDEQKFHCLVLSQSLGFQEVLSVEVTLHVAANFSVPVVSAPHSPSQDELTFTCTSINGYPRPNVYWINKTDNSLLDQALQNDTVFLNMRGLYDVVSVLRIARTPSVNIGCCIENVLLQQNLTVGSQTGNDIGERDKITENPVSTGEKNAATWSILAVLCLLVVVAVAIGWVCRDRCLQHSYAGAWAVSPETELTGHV
Described as above.

Test [3] deals with B7-2, GFP-tagged library member (human) (UniProt P42081). Described as above.
For test [4], the target named is human B7-1-mCherry fusion protein (human) (UniProt P33681). The test is described as above.
In test [5] the target is protein tyrosine phosphatase receptor type F (PTPRF) (human) (UniProt P10586). The description is as above.
The target in test [6] is TNFR2, GFP-tagged library member (human) (UniProt P20333). The description is as above.
Test [7] has as its target HVEM, GFP-tagged library member (human) (UniProt Q92956). Described as above.
Test [8] has as its target FAS, GFP-tagged library member (human) (UniProt P25445). The test is described as above.
The target in test [9] is sortilin (UniProt Q99523). Described as above.
Test [10] deals with T2, SorCS3 (UniProt Q9UPU3).
T2 sequence: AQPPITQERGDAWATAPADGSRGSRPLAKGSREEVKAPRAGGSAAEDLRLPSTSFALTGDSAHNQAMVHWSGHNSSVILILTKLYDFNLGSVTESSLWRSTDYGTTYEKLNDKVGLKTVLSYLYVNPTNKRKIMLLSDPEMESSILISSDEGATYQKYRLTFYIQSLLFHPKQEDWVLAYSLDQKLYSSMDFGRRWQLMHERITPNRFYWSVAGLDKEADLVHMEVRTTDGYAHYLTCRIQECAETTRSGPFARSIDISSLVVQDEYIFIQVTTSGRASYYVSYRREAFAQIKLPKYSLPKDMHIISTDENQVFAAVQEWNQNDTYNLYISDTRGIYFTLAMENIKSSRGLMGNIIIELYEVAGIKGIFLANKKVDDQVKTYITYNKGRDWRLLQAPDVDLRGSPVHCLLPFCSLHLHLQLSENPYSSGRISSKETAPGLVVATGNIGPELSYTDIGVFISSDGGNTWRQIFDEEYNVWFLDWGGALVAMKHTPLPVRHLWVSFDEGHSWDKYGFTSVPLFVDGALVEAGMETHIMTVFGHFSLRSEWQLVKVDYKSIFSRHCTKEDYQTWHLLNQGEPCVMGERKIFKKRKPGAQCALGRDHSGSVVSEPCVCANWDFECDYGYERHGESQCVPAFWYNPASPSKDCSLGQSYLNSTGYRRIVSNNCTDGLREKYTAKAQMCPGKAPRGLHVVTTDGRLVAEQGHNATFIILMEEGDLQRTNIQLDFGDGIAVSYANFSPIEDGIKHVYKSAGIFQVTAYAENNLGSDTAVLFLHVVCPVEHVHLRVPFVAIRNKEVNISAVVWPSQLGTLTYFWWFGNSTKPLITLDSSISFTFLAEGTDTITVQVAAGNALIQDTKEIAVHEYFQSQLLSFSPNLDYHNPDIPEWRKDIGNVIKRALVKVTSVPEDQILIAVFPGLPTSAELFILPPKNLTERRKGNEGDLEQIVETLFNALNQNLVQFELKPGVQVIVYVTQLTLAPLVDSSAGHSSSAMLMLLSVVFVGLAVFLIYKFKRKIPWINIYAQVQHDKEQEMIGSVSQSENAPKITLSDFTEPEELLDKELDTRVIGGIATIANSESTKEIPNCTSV
The test is described as above.

The target of test [11] is full-length human p75 neurotrophin receptor fused at the cytoplasmic C-terminus to GFP (human) (UniProt P08138). The test is described as above.
The target in test [12] is SorCS2 (UniProt Q96PQ0). Described as above.
Test [13] addresses T3, SorCS1 (UniProt Q8WY21).
T3 sequence: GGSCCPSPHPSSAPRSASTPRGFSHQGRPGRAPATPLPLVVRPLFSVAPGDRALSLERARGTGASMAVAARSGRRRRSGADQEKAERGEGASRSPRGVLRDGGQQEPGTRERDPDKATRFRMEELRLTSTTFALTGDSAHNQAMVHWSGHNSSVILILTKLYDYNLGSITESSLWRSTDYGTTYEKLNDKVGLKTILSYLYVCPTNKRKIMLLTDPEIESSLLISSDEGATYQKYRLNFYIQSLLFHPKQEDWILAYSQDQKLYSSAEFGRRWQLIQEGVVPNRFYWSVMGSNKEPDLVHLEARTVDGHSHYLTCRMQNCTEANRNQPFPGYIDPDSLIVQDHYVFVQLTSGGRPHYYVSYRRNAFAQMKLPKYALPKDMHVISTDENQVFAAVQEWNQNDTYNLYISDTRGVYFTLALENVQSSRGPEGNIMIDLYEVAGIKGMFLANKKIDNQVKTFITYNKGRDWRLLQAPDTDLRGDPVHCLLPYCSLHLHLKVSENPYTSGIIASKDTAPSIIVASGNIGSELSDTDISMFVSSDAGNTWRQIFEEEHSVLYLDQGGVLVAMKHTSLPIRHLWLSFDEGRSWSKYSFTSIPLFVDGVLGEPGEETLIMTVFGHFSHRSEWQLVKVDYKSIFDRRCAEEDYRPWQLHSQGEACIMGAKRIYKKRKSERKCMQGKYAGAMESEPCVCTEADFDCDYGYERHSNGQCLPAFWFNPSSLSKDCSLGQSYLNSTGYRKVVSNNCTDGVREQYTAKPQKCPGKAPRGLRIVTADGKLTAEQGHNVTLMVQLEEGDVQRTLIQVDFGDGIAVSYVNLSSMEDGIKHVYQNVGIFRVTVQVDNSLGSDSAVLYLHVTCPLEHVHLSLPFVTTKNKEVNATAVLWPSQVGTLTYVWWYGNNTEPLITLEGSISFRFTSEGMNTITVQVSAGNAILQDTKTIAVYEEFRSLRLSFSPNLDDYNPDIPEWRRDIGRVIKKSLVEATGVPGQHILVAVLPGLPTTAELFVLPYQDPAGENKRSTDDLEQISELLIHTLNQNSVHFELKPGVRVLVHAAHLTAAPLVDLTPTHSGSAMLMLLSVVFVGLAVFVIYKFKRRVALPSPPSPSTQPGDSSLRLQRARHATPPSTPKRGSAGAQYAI
The test is described as above.

The target of test [14] is full-length human p75 neurotrophin receptor fused at the cytoplasmic C-terminus to GFP (human) (UniProt P08138). Description: flow cytometry on cells; heterologous cell-based assay of hB7-1 binding to p75NTR with abatacept; details only in Supplemental Figure 9.
The target in test [15] is p75^NTR F136H (human) (UniProt P08138). Description: flow cytometry on cells; cell-cell conjugates, salt bridge suppressor screen: cells expressing p75NTR lysine or histidine mutants against cells expressing B7-1 D/E mutants or WT B7-1.
Test [16] concerns the target p75^NTR F136K (human) (UniProt P08138). The description is as above.
In test [17] the target is mouse p75^NTR-GFP (mouse) (UniProt Q9Z0W1). Description: flow cytometry on cells; cell-cell conjugates: cells expressing B7-1–mCherry of various mammalian species against cells expressing human, mouse or rat p75NTR-GFP.
The target of test [18] is rat p75^NTR-GFP (rat) (UniProt P07174). Described as above.
Test [19] concerns the target full-length human p75 neurotrophin receptor fused at the cytoplasmic C-terminus to GFP (human) (UniProt P08138). The description is as above.

No constants are given. Whether binding was seen depends on the method and setting. Some binding calls cover weakened binding; strength is not graded here. For some of these results: Where a sequence is shown, tags or fusion partners need not be part of it.

As to “full-length human p75 neurotrophin receptor fused at the cytoplasmic C-terminus to GFP (from UniProt P08138 29-427)”, the binding entry in [1] is reported as “no binding”; in test [2] it was “no binding”; in test [3], “no binding”; in test [4], “binds”; in test [5], “binds”.

Take “human B7-1–mCherry fusion protein (from UniProt P33681 35-288) (ligand)”: the binding entry in test [6] is “no binding”; in [7] it was “no binding”; in test [8], “no binding”; in test [9] it was “no binding”; in test [10] it was “no binding”; in test [11] it was “binds”. Moreover, the binding result is recorded as “no binding” in [12]; “no binding” in test [13]; “binds” in [14]; “binds” in test [15]; “binds” in test [16]; “binds” in test [17]. Moreover, the binding result in test [18] and in test [19] was “binds” in each case.
